# Data published in PubChem BioAssay AID588342 (National Center for Advancing Translational Sciences (NCATS), 2011).
# Out of some 360,000 compounds screened, about 25,000 (6.9%) were called active. The shares of active, inactive and inconclusive entries below differ from those in the screen. The call rests on the fitted dose curve; in most records, active means well fitted inhibition curve with a large enough effect; inconclusive means small, poorly fitted or top-dose-only effect; inactive means flat fitted curve, though single readings scatter. Potencies beside an inconclusive call are fits to weak or partial responses and may not hold up.
# Target: Luciferin 4-monooxygenase (Photinus pyralis) (UniProt P08659)
# Assay: qHTS profiling assay for firefly luciferase inhibitor/activator using purifed enzyme and Km concentrations of substrates (counterscreen for miR-21 project); further: nearly all actives have a fitted effect of over 55% in size
# Settings: purified FLuc, luminescence inhibition; series mostly up to 57.5 µM
# Method in brief: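 Biochemical qHTS of compounds, final roughly 60 µM downward over six points, against 10 nM purified firefly luciferase using Km concentrations of substrates (10 uM D-luciferin, 10 uM ATP) in Tris acetate pH 7.5 buffer; luminescence output.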
# Potency means the concentration at half of the fitted maximal effect; tags describe the fitted curve by direction and shape.
# UniProt P08659, sequence (P08659 whole entry, looked up): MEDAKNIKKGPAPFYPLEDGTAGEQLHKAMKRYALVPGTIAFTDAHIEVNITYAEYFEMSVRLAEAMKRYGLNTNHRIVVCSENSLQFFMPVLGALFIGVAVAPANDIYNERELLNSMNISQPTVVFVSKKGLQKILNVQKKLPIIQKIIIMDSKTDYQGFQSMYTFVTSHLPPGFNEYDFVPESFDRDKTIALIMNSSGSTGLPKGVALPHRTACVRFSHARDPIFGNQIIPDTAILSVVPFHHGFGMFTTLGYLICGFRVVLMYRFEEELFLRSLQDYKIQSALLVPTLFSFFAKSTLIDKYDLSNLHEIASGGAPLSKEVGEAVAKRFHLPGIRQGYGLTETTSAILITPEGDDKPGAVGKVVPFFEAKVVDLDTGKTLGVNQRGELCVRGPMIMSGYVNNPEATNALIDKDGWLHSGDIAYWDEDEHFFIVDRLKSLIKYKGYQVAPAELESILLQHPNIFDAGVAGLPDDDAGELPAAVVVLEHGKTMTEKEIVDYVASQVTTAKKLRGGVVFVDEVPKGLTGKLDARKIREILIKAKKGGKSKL
row,Structure (SMILES),Potency
1,CCOc1ccc(CCNC(=O)c2ccc(Cl)c(S(=O)(=O)N3CCOCC3)c2)cc1OCC,inactive
2,CCOc1ccc(C(=O)Nc2cccc(C)n2)cc1,active: 2.39 µM
3,Cc1ccc(-c2nn(-c3cccc(F)c3)cc2CN(Cc2nccn2C)C(C)C)o1,"inconclusive: 23.9 µM [inhibitor, partial curve]"
4,CC1(C)Cc2c(sc(NC(=O)c3ccccc3)c2C(=O)O)CO1,active: 6.75 µM
5,O=C(CN1C(=O)NC2(CCCC2)C1=O)NNC(=O)c1ccc(Cl)cc1,inactive
6,CCOc1cccc(NC(=O)CSc2ncc(-c3ccccc3)[nH]2)c1,"inconclusive: 16.9 µM [inhibitor, partial curve]"
7,CCOc1cccc2sc(N3CCN(C(=O)C4CC4)CC3)nc12,inactive
8,Brc1ccccc1/C=N/Nc1nc2ccccc2o1,"inconclusive: 5.36 µM [inhibitor, full curve]"
9,O=C(CSc1nc2ccccc2s1)Nc1ccc(N2CCOCC2)c(Cl)c1,"inconclusive: 23.9 µM [inhibitor, single point]"
10,CC(=O)c1c(C)[nH]c(C(=O)NCCc2ccccc2)c1C,active: 10.7 µM
11,Cc1ccn2c(Nc3ccc4c(c3)OCCO4)c(-c3cccs3)nc2c1,active: 9.53 µM
12,Cc1ccccc1-c1nnc(-c2ccccc2)o1,active: 6.75 µM
13,N#Cc1c(-c2c(Cl)cccc2Cl)noc1/C=C/Nc1ccc(C(=O)O)cc1,"inconclusive: 23.9 µM [inhibitor, single point]"
14,O=C(COC(=O)c1ccc[nH]c1=O)NC1CCCCCC1,"inconclusive: 21.3 µM [inhibitor, partial curve, poor fit]"
15,COc1ccc(-c2nc(-c3ccc(Br)o3)no2)cc1OC,"inconclusive: 5.36 µM [inhibitor, partial curve, poor fit]"
16,CC(C)c1onc(C(=O)N2CCOCC2)c1[N+](=O)[O-],inactive
17,COc1ccc(NC(=O)CSc2nc(C)cs2)cc1,"inconclusive: 21.3 µM [inhibitor, partial curve, poor fit]"
18,COc1ccc2nc(/C=N/NC(=O)CCCCCNC(=O)OC(C)(C)C)ccc2c1,active: 10.7 µM
19,CCCCOC(=O)CSc1nnc(-c2ccc(C)cc2)o1,"inconclusive: 26.9 µM [inhibitor, partial curve, poor fit]"
20,Cc1cc(C)c2nc(N3CCCC(C(=O)NCCCN4CCOCC4)C3)sc2c1 (configuration not stated),"inconclusive: 33.8 µM [inhibitor, single point]"
21,COc1cc(OC)cc(C(=O)NNC(=O)c2ccc3ccccc3n2)c1,"inconclusive: 37.9 µM [inhibitor, partial curve, poor fit]"
22,COc1ccc(C(=O)Nc2nnc(C)s2)cc1,active: 13.5 µM
23,O=C(Oc1ccc(Cl)c2cccnc12)c1cccc([N+](=O)[O-])c1,"inconclusive: 23.9 µM [inhibitor, partial curve, poor fit]"
24,Cc1nn(C(C)C(=O)NCC2CCCO2)c(=O)c2c1sc1ccccc12 (configuration not stated),inactive

row,Structure (SMILES),Potency
1,O=C(NNC(=O)C1CC(c2cccs2)=NO1)Nc1ccc(Cl)cc1 (configuration not stated),inactive
2,CCOC(=O)C(C)Oc1cccc2c(=O)n(CC(=O)NCCc3ccc(OC)c(OC)c3)ccc12 (configuration not stated),"inconclusive: 21.3 µM [inhibitor, partial curve, poor fit]"
3,CCOc1cccc2cc(C(=O)NCc3ccccc3)c(=N)oc12,active: 16.9 µM
4,O=C(COC(=O)c1cc(-c2ccc(Cl)s2)nc2ccccc12)NCc1ccco1,"inconclusive: 37.9 µM [inhibitor, single point]"
5,O=C(CSc1nnc(-c2ccccc2)o1)OCc1ccccc1,"inconclusive: 26.9 µM [inhibitor, partial curve, poor fit]"
6,C=CCN(CC=C)S(=O)(=O)c1ccc(NC(=S)NC(=O)/C=C/c2ccccc2)cc1,"inconclusive: 23.9 µM [inhibitor, partial curve, poor fit]"
7,O=C1CSc2ccc(C(=O)O)cc2N1,"inconclusive: 12 µM [inhibitor, partial curve, poor fit]"
8,CC(C)Cc1csc(NC(=O)c2ccc(Br)cc2)c1C(=O)O,active: 26.9 µM
9,Cc1cc(C)c(S(=O)(=O)/N=C2/C=C(SCC(=O)O)C(=O)c3ccccc32)cc1C,active: 21.3 µM
10,COc1cc(NC(=O)Cc2cccs2)c(C(=O)O)cc1OC,"inconclusive: 6.75 µM [inhibitor, full curve]"
11,O=C(N/N=C/c1cn(-c2cccs2)nc1-c1ccccc1)c1ccccc1Br,active: 6.75 µM
12,Cc1cc(=O)[nH]c(SC/C=C/c2ccccc2)n1,"inconclusive: 37.9 µM [inhibitor, single point]"
13,O=C(COC(=O)c1ccc(O)cc1O)N=c1sccn1Cc1ccccc1Cl,"inconclusive: 37.9 µM [inhibitor, partial curve, poor fit]"
14,COC(=O)c1oc2ccccc2c1NC(=O)/C=C/C(=O)O,inactive
15,CC(C)(C)n1ncc2c(=O)n(Cc3c(F)ccc(Cl)c3Cl)cnc21,active: 13.5 µM
16,CCn1cnc2c(Nc3cccc(Cl)c3)nc(C#N)nc21,"inconclusive: 2.39 µM [inhibitor, partial curve, poor fit]"
17,Cc1ccc(NC(=O)NC2CCCCCCC2)cc1C,active: 7.57 µM
18,NC(=O)c1ccc(NC(=O)COC(=O)c2c3c(nc4ccccc24)/C(=C\c2cccs2)CCC3)cc1,"inconclusive: 33.8 µM [inhibitor, partial curve, poor fit]"
19,O=C(NC1CCCC1)c1cc(-c2ccc(Cl)cc2)on1,active: 2.69 µM
20,O=C(NN1C(=O)/C(=C/C=C/c2ccco2)SC1=S)c1ccccc1O,active: 19 µM
21,O=C(CSc1nnc(-c2ccc(Br)cc2)o1)Nc1cccc(C(=O)O)c1,inactive
22,Cc1c(CC(=O)N[C@@H](CCCNC(N)=O)C(=O)O)c(=O)oc2cc3oc4c(c3cc12)CCCC4,active: 16.9 µM
23,N/C(=N\OS(=O)(=O)c1ccc2ccccc2c1)c1ccccn1,"inconclusive: 37.9 µM [inhibitor, partial curve, poor fit]"
